From PubChem BioAssay AID504845 (National Center for Advancing Translational Sciences (NCATS), 2011)
In all, about 390,000 compounds went through this assay and about 150 (0.038%) were called active. Inconclusive results, whose numbers are uncertain, are shown with a selection of clear calls. The call rests on the fitted dose curve; in most records, active means well fitted inhibition curve with a large enough effect; inconclusive means small, poorly fitted or top-dose-only effect; inactive means no such curve, though single readings can be large or run the other way. A potency beside an inconclusive call is a rough fit, not a confirmed value.

Target: Regulator of G-protein signaling 4 (Homo sapiens) (UniProt P49798)
UniProt P49798, sequence (P49798 whole entry, looked up): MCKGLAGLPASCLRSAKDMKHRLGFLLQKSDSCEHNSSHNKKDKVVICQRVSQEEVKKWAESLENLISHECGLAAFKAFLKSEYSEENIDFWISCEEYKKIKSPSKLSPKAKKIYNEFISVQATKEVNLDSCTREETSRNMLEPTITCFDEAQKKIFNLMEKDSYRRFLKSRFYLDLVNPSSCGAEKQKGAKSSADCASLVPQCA
Experiment: Inhibitors of Regulator of G Protein Signaling (RGS) 4: qHTS; further: nearly all actives have a fitted effect of over 75% in size
Details: Transcreener GDP fluorescence polarization, RGS4-accelerated GTP hydrolysis; series mostly up to 114 µM
Procedure, shortened: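 MLSMR compounds (23 nl, pin-transferred) preincubated 10 min at room temperature with a 500nM (2x) first reagent, then RGS4 at 900nM (2x) plus Transcreener GDP mix added; fluorescence polarization (620/688 nm) read before and after 90 min at 30 °C.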
On the % scale 0 is the no-effect control and ±100 the full control effect; potency means the concentration at half of the fitted maximal effect; tags describe the fitted curve by direction and shape.

**Q.** For `CCCN(CCC)CCCNC(=O)C1CCC(CNS(=O)(=O)c2ccc(NC(C)=O)cc2)CC1` (configuration not stated), which Potency is on record?
**A.** inactive

**Q.** Which Potency does the source give for `CCN1CCc2c(sc(NC(=S)NC(=O)c3ccccc3)c2C#N)C1` here?
**A.** inconclusive: 44.7 µM [inhibitor, partial curve, poor fit]

**Q.** For `O=C(CCN1CCC(c2ccccc2)C1)c1ccc2c(c1)OCCO2` (configuration not stated), which Potency is on record?
**A.** inactive

**Q.** With `Cc1cc(C)c(NC(=O)c2ccc(S(=O)(=O)N(C)C)cc2)c(C)n1` as the molecule, how does the Potency read?
**A.** inactive

**Q.** With `C=CCc1cc(Cl)ccc1OCCOCCNC(C)CC` (configuration not stated) as the molecule, how does the Potency read?
**A.** inactive

**Q.** `Clc1ccc(-c2cc3ccccc3nc2N2CCOCC2)cc1` was tested. Which Potency did it give?
**A.** inconclusive: 44.7 µM [inhibitor, partial curve, poor fit]

**Q.** `COC(=O)c1ccc(C2Nc3c(C)cc(C)cc3C3C=CCC32)cc1` (configuration not stated) was tested. Which Potency did it give?
**A.** inconclusive: 35.5 µM [inhibitor, partial curve, poor fit]

**Q.** `COc1ccc(-c2cnnc(N/N=C/c3ccc(C)o3)n2)cc1` was tested. Which Potency did it give?
**A.** inconclusive: 50.1 µM [inhibitor, partial curve, poor fit]

**Q.** Which activity change, negative = inhibition does the source give for `COc1cc(C(=O)O/N=C2\C=CC(=O)C=C2C)cc(OC)c1OC` here?
**A.** inactive: -21.2% [at 11.4 µM]

**Q.** For `COc1cccc(/C=N/NC(=O)C(=O)N2CCCCCC2)c1O`, which Potency is on record?
**A.** inactive

**Q.** With `CCCS(=O)(=O)c1ncc(Cl)c(C(=O)N(Cc2ccccc2)Cc2ccco2)n1` as the molecule, how does the Potency read?
**A.** inconclusive: 10 µM [inhibitor, full curve, poor fit]

**Q.** For `CC(C)C(NS(=O)(=O)c1ccc2c(c1)OCCCO2)C(=O)O` (configuration not stated), which Potency is on record?
**A.** inconclusive: 17.8 µM [inhibitor, full curve, poor fit]

**Q.** For `N#CCCN(C(=O)Nc1ccccc1)c1ccccc1`, which Potency is on record?
**A.** inactive

**Q.** Which Potency does the source give for `C=CCn1c(SCC(=O)Nc2ccc(C(=O)O)cc2)nc2scc(-c3ccccc3)c2c1=O` here?
**A.** inconclusive: 89.1 µM [inhibitor, single point]

**Q.** Which Potency does the source give for `Cc1[nH][nH]c(=O)c1C(c1ccc(-c2ccc(F)cc2)o1)c1c(C)[nH][nH]c1=O` here?
**A.** inconclusive: 79.4 µM [inhibitor, partial curve, poor fit]

**Q.** For `CC(=O)N1N=C(c2c(-c3ccccc3)c3cc(Br)ccc3[nH]c2=O)CC1c1ccco1` (configuration not stated), which Potency is on record?
**A.** inconclusive: 20 µM [inhibitor, full curve, poor fit]

**Q.** `CCOC(=O)c1sc2ccccc2c1S(=O)(=O)Nc1c(C)cccc1C` was tested. Which Potency did it give?
**A.** inactive

**Q.** `COc1ccc(S(=O)(=O)NCCSCc2ccc(Cl)cc2)cc1NC(C)=O` was tested. Which Potency did it give?
**A.** inconclusive: 79.4 µM [inhibitor, partial curve, poor fit]

**Q.** How did the Potency turn out when `Nc1ncnc2c1ncn2C1CCCO1` (configuration not stated) was run?
**A.** inconclusive: 37.7 µM [inhibitor, single point]

**Q.** `CCSC(=O)N=Nc1ccc(O)cc1` was tested. Which Potency did it give?
**A.** inconclusive: 56.2 µM [inhibitor, partial curve, poor fit]

**Q.** How did the Potency turn out when `O=C(NC(=S)N1CCN(c2nc(-c3ccccc3)cs2)CC1)c1cccnc1` was run?
**A.** inactive

**Q.** For `O=C(Nc1nnc(SCc2c(Cl)cccc2Cl)s1)C1CC(=O)N(c2ccc3c(c2)OCCO3)C1` (configuration not stated), which Potency is on record?
**A.** inconclusive: 79.4 µM [inhibitor, partial curve, poor fit]

**Q.** For `O=C(Cc1ccc(Br)cc1)N1CCN(c2ccccn2)CC1`, which Potency is on record?
**A.** inconclusive: 79.4 µM [inhibitor, single point]

**Q.** For `Cc1ccc(NC(=O)COC(=O)Cc2csc(-c3ccc(Cl)cc3)n2)cc1C`, which Potency is on record?
**A.** inconclusive: 89.1 µM [inhibitor, single point]

**Q.** How did the Potency turn out when `O=S(=O)(Nc1ncccn1)c1ccccc1` was run?
**A.** inconclusive: 44.7 µM [inhibitor, partial curve, poor fit]

**Q.** Which Potency does the source give for `C=CCn1c(=S)[nH]c2scc(-c3ccco3)c2c1=O` here?
**A.** inconclusive: 31.6 µM [inhibitor, full curve, poor fit]

**Q.** With `CC1CC(C)CN(S(=O)(=O)c2ccc(C(=O)OCC(=O)NCCN3C(=O)CSC3=O)cc2)C1` (configuration not stated) as the molecule, how does the Potency read?
**A.** inconclusive: 100 µM [inhibitor, partial curve, poor fit]

**Q.** Which Potency does the source give for `c1ccc(Nc2nc(NCc3ccco3)c3ccccc3n2)cc1` here?
**A.** inactive

**Q.** `O=C1C=CC(=O)N1c1ccc(O)cc1` was tested. Which Potency did it give?
**A.** inconclusive: 28.2 µM [inhibitor, full curve, poor fit]

**Q.** `CCc1nc2sc3ccccc3c(=O)c2c(=O)n1Cc1ccco1` was tested. Which Potency did it give?
**A.** inconclusive: 79.4 µM [inhibitor, partial curve, poor fit]

**Q.** `O=C(CN1CCC(NC(=O)c2ccco2)CC1)Nc1cccc2ccccc12` was tested. Which Potency did it give?
**A.** inconclusive: 89.1 µM [inhibitor, single point]

**Q.** Which Potency does the source give for `CCCN1C(=O)C(Cc2nc3ccccc3c(=O)n2CC)c2ccccc21` (configuration not stated) here?
**A.** inactive

**Q.** How did the Potency turn out when `Cc1ccc(N2C(=O)[C@@H]3C(c4cccnc4)=NO[C@@H]3C2=O)cc1` was run?
**A.** inactive

**Q.** Which Potency does the source give for `CCOC(=O)C1CCCN(C(=O)c2ccc3c(=O)n(CCOC)c(=S)[nH]c3c2)C1` (configuration not stated) here?
**A.** inconclusive: 79.4 µM [inhibitor, single point]

**Q.** `C=CCSC1=C(C#N)C(c2ccccc2Cl)CC(=O)N1` (configuration not stated) was tested. Which Potency did it give?
**A.** inconclusive: 50.1 µM [inhibitor, partial curve, poor fit]

**Q.** `CCS(=O)(=O)N1CCC[C@H]2CN3CCc4cc(OC)ccc4[C@@H]3C[C@@H]21` was tested. Which Potency did it give?
**A.** inconclusive: 0.0752 µM [inhibitor, full curve, poor fit]

**Q.** With `CC(C)(C)C1=Nn2c(nnc2-c2n[nH]c3c2CCC3)SC1` as the molecule, how does the Potency read?
**A.** inconclusive: 89.1 µM [inhibitor, single point]

**Q.** `CN1CCN(c2nc(N3CCN(CCO)CC3)nc3ccccc23)CC1` was tested. Which Potency did it give?
**A.** inactive

**Q.** `O=S(=O)(c1ccccc1)c1nnn2c1nc(NCc1cccs1)c1sccc12` was tested. Which Potency did it give?
**A.** inconclusive: 89.1 µM [inhibitor, single point]

**Q.** How did the Potency turn out when `Clc1nssc1=Nc1nncs1` was run?
**A.** inactive

**Q.** `Cc1cc(N2C(=O)C3C4C=CC(C4)C3C2=O)ccc1NC(=O)c1cccs1` (configuration not stated) was tested. Which Potency did it give?
**A.** inactive

**Q.** Which Potency does the source give for `COc1ccc(-c2nc(=N)sn2-c2ccccc2)cc1` here?
**A.** inconclusive: 17.8 µM [inhibitor, full curve, poor fit]

**Q.** How did the Potency turn out when `CCOC(=O)Nc1ccc(=O)n(Cc2c(Cl)cccc2Cl)c1` was run?
**A.** inconclusive: 79.4 µM [inhibitor, partial curve, poor fit]

**Q.** `CC(C)Oc1ccc(CC(=O)NNC(=S)Nc2ccc(Br)cc2)cc1` was tested. Which Potency did it give?
**A.** inconclusive: 44.7 µM [inhibitor, partial curve, poor fit]

**Q.** `O=c1c2ccccc2[nH]c2ccc(O)cc12` was tested. Which Potency did it give?
**A.** inconclusive: 89.1 µM [inhibitor, partial curve, poor fit]

**Q.** With `O=C(Nc1cc(S(=O)(=O)N2CCCCC2)ccc1O)c1ccccc1NS(=O)(=O)c1ccc(F)cc1` as the molecule, how does the Potency read?
**A.** inconclusive: 100 µM [inhibitor, partial curve, poor fit]

**Q.** How did the Potency turn out when `CCOC(=O)N1CCN(S(=O)(=O)c2ccc(C(=O)Nc3sc4c(c3C(N)=O)CCN(CC)C4)cc2)CC1` was run?
**A.** inconclusive: 31.6 µM [inhibitor, full curve, poor fit]

**Q.** With `O=C(NCc1cccs1)c1ccc2c(c1)N(Cc1ccccc1Cl)C(=O)c1ccccc1S2` as the molecule, how does the Potency read?
**A.** inactive

**Q.** With `CC(=O)NCc1ccc(S(=O)(=O)N/N=C/c2ccccc2)cc1` as the molecule, how does the Potency read?
**A.** inconclusive: 79.4 µM [inhibitor, partial curve, poor fit]

**Q.** For `OC(Cn1cnnc1)c1ccccc1` (configuration not stated), which Potency is on record?
**A.** inactive

**Q.** How did the Potency turn out when `CC(c1ccco1)N(C(=O)c1cc(Cl)cc(Cl)c1)c1ccccn1` (configuration not stated) was run?
**A.** inconclusive: 89.1 µM [inhibitor, single point]

**Q.** Which Potency does the source give for `Cc1ccc(-c2nc3ccccn3c2Nc2ccccc2C)o1` here?
**A.** inconclusive: 50.1 µM [inhibitor, partial curve, poor fit]

**Q.** How did the Potency turn out when `Cc1ccc(-n2nnnc2-c2cnoc2-c2cccc(F)c2)cc1` was run?
**A.** inconclusive: 89.1 µM [inhibitor, partial curve, poor fit]

**Q.** Which Potency does the source give for `O=C(CNS(=O)(=O)c1ccc(C(=O)N2CCCCC2)cc1)N1CCCCC1` here?
**A.** inconclusive: 79.4 µM [inhibitor, single point]

**Q.** With `CC1=NN(c2ccc(C(=O)O)cc2)C(=O)/C1=C\c1ccc(OC(=O)c2cccs2)cc1` as the molecule, how does the Potency read?
**A.** inconclusive: 44.7 µM [inhibitor, partial curve, poor fit]

**Q.** With `CCCn1c(=O)c(C(=O)NCCc2ccc(OC)c(OC)c2)c(O)c2ccccc21` as the molecule, how does the Potency read?
**A.** inactive

**Q.** How did the Potency turn out when `O=Cc1c(-[n+]2ccccc2)nc([O-])n1-c1ccccc1` was run?
**A.** inconclusive: 100 µM [inhibitor, single point]

**Q.** `O=C(CC1Sc2ncnn2C1=O)Nc1ccc(Br)cc1` (configuration not stated) was tested. Which Potency did it give?
**A.** inconclusive: 79.4 µM [inhibitor, partial curve, poor fit]

**Q.** `CCCCCOc1ccc(C(=O)OCC(=O)Nc2cc(C)on2)cc1` was tested. Which Potency did it give?
**A.** inactive

**Q.** For `Cc1ccccc1CNC(=O)C(C)n1nc(C)n2c(cc3occc32)c1=O` (configuration not stated), which Potency is on record?
**A.** inactive

**Q.** Which Potency does the source give for `COc1cccc(NC(=O)CN(C)C(=O)CC2CCCCC2)c1` here?
**A.** inconclusive: 100 µM [inhibitor, partial curve, poor fit]

**Q.** Which Potency does the source give for `CCOc1ccc(/C=N/OCC(=O)NCc2ccco2)cc1` here?
**A.** inconclusive: 50.1 µM [inhibitor, partial curve, poor fit]

**Q.** Which Potency does the source give for `c1ccc(-c2nc(N3CCCCCC3)c3ccccc3n2)nc1` here?
**A.** inactive

**Q.** With `COc1ccccc1CNC(=O)C(Cc1ccccc1)NS(=O)(=O)c1ccc2c(c1)oc(=O)n2C` (configuration not stated) as the molecule, how does the Potency read?
**A.** inconclusive: 79.4 µM [inhibitor, partial curve, poor fit]

**Q.** `COc1ccc(C2=CC3=C(Br)C(=O)C(C)(OC(=O)c4ccco4)C(=O)C3=CO2)cc1` (configuration not stated) was tested. Which Potency did it give?
**A.** inconclusive: 17.8 µM [inhibitor, full curve, poor fit]

**Q.** Which Potency does the source give for `Cc1c(C(=O)N2CCCC2)oc2c1-c1nn(CC(=O)NCc3cccc(Br)c3)cc1CC2` here?
**A.** inactive

**Q.** How did the Potency turn out when `O=C1[C@@H]2C(c3cccnc3)=NO[C@@H]2C(=O)N1c1ccc2ccccc2c1` was run?
**A.** inconclusive: 89.1 µM [inhibitor, single point]
